Bridge positions count the residues as written; N and C are the ends. Ends that are not written are not given here.
Assays:
[1] = Chitin-binding assay with chitin beads; details: 40 μM peptide, 60 μL chitin beads, buffer pH 8.0, room temperature, 4 h; elution 500 mM acetic acid pH 3.0; UPLC and MALDI-TOF MS
aminopeptidase I = test: Exoproteolytic enzyme stability assay (aminopeptidase); format: in vitro ADME; details: 20 mM tricine, 0.05% BSA pH 8.0, 20 U/mL aminopeptidase I, 37°C, RP-UPLC, read-out: peptide remaining after aminopeptidase digestion
trypsin = test: Endoproteolytic enzyme stability assay (trypsin); format: in vitro ADME; details: 100 mM ammonium bicarbonate pH 7.8, 37°C, RP-UPLC, read-out: peptide remaining after trypsin digestion
carboxypeptidase A = test: Exoproteolytic enzyme stability assay (carboxypeptidase A); format: in vitro ADME; details: 50 mM Tris-HCl, 100 mM NaCl, 100 nM carboxypeptidase A, 37°C, RP-UPLC, read-out: peptide remaining after carboxypeptidase A digestion
Heat stability assay = format: physicochemical; details: 200 μM, water bath 100°C, 1 h; RP-UPLC/RP-HPLC
Rhizoctonia solani = test: Micro-broth dilution assay, methylene blue read-out; format: cell-based; details: R. solani, spores in half-strength potato dextrose broth, 24 h, 25°C, absorbance 640 nm
Aspergillus niger = test: as above; format: cell-based; details: A. niger, spores in half-strength potato dextrose broth, 24 h, 25°C, absorbance 640 nm
Curvularia lunata = test: as above; format: cell-based; details: C. lunata, spores in half-strength potato dextrose broth, 24 h, 25°C, absorbance 640 nm
Fusarium oxysporum = test: as above; format: cell-based; details: F. oxysporum, spores in half-strength potato dextrose broth, 24 h, 25°C, absorbance 640 nm
various fungal strains = details: ref Fujimura et al., 2003; cited from earlier work

DPTCSKLGD-FKCNPGRCCSKFNYCGSTAAYCGR-GNCIAQCP---- (bicyclic or more) [gB3, 8C-hevein-like peptide (ginkgotide) isolated from Ginkgo biloba leaves]
chitin-binding (peptide in supernatant vs acidic elution buffer) [1]: absent in the supernatant but were recovered in the acidic elution buffer

DPTCSVLGDFKCNPGRCCSKFNYCGSTAAYCGPGNCIAQCP (disulfide 4-18, 12-24, 17-31, 36-40) [gB5]
remaining at 6 h, 200 μM (aminopeptidase I): > 95% | remaining at 6 h, 200 μM (trypsin): > 95% | remaining at 6 h, 200 μM (carboxypeptidase A): > 95% | peptide remaining after boiling water (Heat stability assay): 80% | IC50 (Rhizoctonia solani): 20.0 µg/mL | IC50 (Aspergillus niger): 6.8 µg/mL | IC50 (Curvularia lunata): 10.0 µg/mL | IC50 (Fusarium oxysporum): 69.2 µg/mL

-AQCGAQGGGATCPGGLCCSQWGWCGSTPKYCG--AGCQSNCK---- (bicyclic or more) [Fa-AMP1, 8C-hevein-like peptide from buckwheat Fagopyrum esculentum]
IC50 range (various fungal strains): 11 to 36 µg/mL

DPTCSKLGD-FKCNPGRCCSKFNYCGSTAAYCGP-GNCIAQCP---- (bicyclic or more) [gB8, 8C-hevein-like peptide (ginkgotide) isolated from Ginkgo biloba leaves]
chitin-binding (peptide in supernatant vs acidic elution buffer) [1]: absent in the supernatant but were recovered in the acidic elution buffer

Source: PMC5093130, “Ginkgotides: Proline-Rich Hevein-Like Peptides from Gymnosperm Ginkgo biloba” (Frontiers in Plant Science, 2016)
